# The campaign covered roughly 310,000 compounds. About 14,000 (4.5%) showed an effect of 50% or more. Effects have a minus sign here. The list shows a part of the results.
# Molecular target: human ether-à-go-go-related gene (hERG) potassium channel (human, UniProt Q12809)
# Assay: primary screen, population patch clamp on CHO cells stably expressing hERG
# 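Note: peak tail current of the secondary pulse compared with the same well before compound.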
# Sequence of human ether-à-go-go-related gene (hERG) potassium channel (Q12809 whole entry, looked up): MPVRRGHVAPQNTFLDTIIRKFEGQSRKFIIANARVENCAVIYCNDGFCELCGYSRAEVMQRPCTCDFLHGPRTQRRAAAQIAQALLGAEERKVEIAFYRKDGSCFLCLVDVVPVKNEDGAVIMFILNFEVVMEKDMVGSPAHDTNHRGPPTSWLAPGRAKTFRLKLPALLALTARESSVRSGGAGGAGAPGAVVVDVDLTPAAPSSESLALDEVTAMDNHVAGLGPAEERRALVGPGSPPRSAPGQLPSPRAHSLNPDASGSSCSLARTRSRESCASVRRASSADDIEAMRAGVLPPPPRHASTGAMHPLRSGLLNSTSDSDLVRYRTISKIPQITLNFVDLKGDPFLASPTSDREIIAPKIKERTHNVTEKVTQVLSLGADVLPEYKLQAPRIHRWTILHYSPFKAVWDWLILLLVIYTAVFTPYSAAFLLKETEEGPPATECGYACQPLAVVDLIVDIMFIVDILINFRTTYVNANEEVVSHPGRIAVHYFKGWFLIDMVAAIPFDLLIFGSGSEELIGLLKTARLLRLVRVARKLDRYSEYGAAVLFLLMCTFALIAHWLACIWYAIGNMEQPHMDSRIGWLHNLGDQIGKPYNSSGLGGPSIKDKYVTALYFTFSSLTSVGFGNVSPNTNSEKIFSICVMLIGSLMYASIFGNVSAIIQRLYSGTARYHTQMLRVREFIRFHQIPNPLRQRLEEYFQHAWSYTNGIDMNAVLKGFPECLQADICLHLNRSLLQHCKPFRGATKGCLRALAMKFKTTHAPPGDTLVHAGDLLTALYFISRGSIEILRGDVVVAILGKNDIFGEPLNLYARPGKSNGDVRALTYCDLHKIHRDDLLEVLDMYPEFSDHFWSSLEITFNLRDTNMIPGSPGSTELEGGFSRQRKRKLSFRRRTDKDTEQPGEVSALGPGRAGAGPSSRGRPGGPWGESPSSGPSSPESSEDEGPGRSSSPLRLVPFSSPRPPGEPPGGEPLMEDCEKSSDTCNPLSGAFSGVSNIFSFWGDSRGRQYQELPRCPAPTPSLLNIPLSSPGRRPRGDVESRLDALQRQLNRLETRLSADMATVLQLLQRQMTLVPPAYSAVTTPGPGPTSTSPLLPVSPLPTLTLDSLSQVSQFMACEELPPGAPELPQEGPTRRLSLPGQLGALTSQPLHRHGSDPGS
row,SMILES,"hERG current change (%, negative = inhibition) at 10uM [%]"
1,C=CCN(CC=C)C(=O)CCc1nnc(CCc2c[nH]c3ccccc23)o1,15.7
2,CN(C)C=O.COc1ccccc1CNC(=O)COC(=O)c1ccc(NC(N)=O)cc1,15.7
3,Cc1cc(Br)cc(Br)c1OCC(=O)NNC(=O)c1ccoc1C,7.4
4,CN1CCN(S(=O)(=O)c2ccc(NC(=S)NC(=O)C3CC3)cc2)CC1,-17.5
5,CCc1ccc(NC(=O)CS(=O)CC(=O)NCCCc2ccccc2)cc1 (centres unmarked),-4.52
6,CC(C)[C@@]1(c2ccccc2)ON(c2ccccc2C(F)(F)F)C1=O,-6.16
7,COc1ccc(N(CC2CO2)S(=O)(=O)c2ccccc2)cc1 (centres unmarked),10.8
8,CC(C)(C)C(=O)Nc1nc2c(s1)CN(Cc1ccccc1)CC2,14.2
9,COc1ccccc1NC(=O)Cn1cnc2sc(C(=O)Nc3cc(OC)c(OC)c(OC)c3)c(C)c2c1=O,27.8
10,CC(C)(C)OC(=O)NCC(=O)N1CCC(C(=O)O)CC1,18.3
11,COC(=O)c1ccc(C(C(=O)NC2CCCCC2)N(CCc2ccccc2)C(=O)Cc2cccs2)cc1 (centres unmarked),3.83
12,OC(COC(c1ccc(F)cc1)c1ccc(F)cc1)CN1CCc2ccccc2C1 (centres unmarked),-73.7
13,O=C(N/N=C/c1ccc2c(c1)OCO2)c1ccc2c(c1)OCCO2,10.8
14,CC(=O)Nc1c(C(=O)O)[nH]c2ccccc12,12.7
15,CN(C)/C=C/C(=O)c1ccc2noc(-c3ccc(F)cc3)c2c1,-9.41
16,Cc1ccc2c(c1)C1CN(C)CCC1N2C(=O)c1ccccc1NS(=O)(=O)c1ccc(F)cc1C.Cl (centres unmarked),-17.4
17,Cc1ccc(Cn2c(C(CO)Nc3nc(-c4ccc(F)cc4)cs3)nc3ccccc32)cc1 (centres unmarked),15.4
18,Cc1cc(C(=O)COc2ccc3ccc(=O)oc3c2)c(C)n1Cc1cccs1,-4.97
19,O=C(Cn1cnc2c(nnn2Cc2ccc(F)cc2)c1=O)Nc1ccc2c(c1)OCCO2,-27.2
20,COc1ccc(Cl)cc1NC(=O)CN(C)CC(=O)Nc1cc(OC)c(OC)c(OC)c1,-8.72
21,CC(=O)N=C1SC2CS(=O)(=O)CC2N1c1cccc(Cl)c1Cl (centres unmarked),-0.645
22,CCOC(=O)c1cccc(P(=O)(C(C)(C)C)C(C)(C)C)c1,17.1

row,SMILES,"hERG current change (%, negative = inhibition) at 10uM [%]"
1,Cc1cccc(N2CCN(C(=O)CCn3c(=O)[nH]c4ccccc4c3=O)CC2)c1C,-8.4
2,Cc1ccc(NC(=O)c2cnccn2)c(OC(F)F)c1,4.64
3,CCc1[nH]nc2c1C(c1ccncc1)C(C#N)=C(N)O2 (centres unmarked),12.3
4,Cn1c(SCCc2ccc([N+](=O)[O-])cc2)nccc1=O,-59.9
5,CCn1c(SCC(=O)NCC2CCCO2)nnc1-c1ccccc1OC (centres unmarked),10.9
6,Cc1cc(-c2ccc(S(=O)(=O)Nc3ccc(C#N)cc3)s2)on1,12
7,CC(C)[C@H](NC(=O)N1CCn2c1nc1ccccc12)C(=O)NCc1ccc(F)cc1,3.68
8,C=C(C)C1Cc2c(C)nn(-c3ccccn3)c2C1 (centres unmarked),11
9,O=[N+]([O-])c1ccccc1S(=O)(=O)Nc1cccc2cccnc12,0.351
10,CN(C)c1nc(N)nc(CSc2ccccn2)n1,11.8
11,Cc1ccc(OCc2nnc(SCC(=O)Nc3cccc4ccccc34)n2-c2ccccc2)cc1,17.3
12,CC(=O)c1ccc(Oc2cc(C)nc(NCc3ccccc3)n2)cc1,-1.25
13,COc1ccc(/C=N/NC(=O)c2ccc3c(c2)OCCO3)cc1[N+](=O)[O-],16
14,Cc1ccc(C(=O)N(C)CCOc2ccccc2)cc1S(=O)(=O)N1CCCCC1,-51.4
15,Nc1ccc(-c2nc3cc(N)ccc3o2)cc1,-6.14
16,Cc1cc2c(cc1S(=O)(=O)Nc1cccc(F)c1)n(C)c(=O)c(=O)n2C,-10.9
17,CC(C)CNc1nc(Oc2ccc(=O)n(-c3ccccc3)n2)nc(N2CCOCC2)n1,-1.97
18,O=C(CNC(=O)c1ccccc1)N/N=C/c1cn[nH]c1-c1ccccc1,16.4
19,CC(C)COP(=O)(OCC(C)C)C(O)c1ccc2c(c1)OCO2 (centres unmarked),8.62
20,CC1Sc2ccc(S(=O)(=O)N3CCN(c4ccccc4)CC3)cc2NC1=O (centres unmarked),0.591
21,O=C(CSc1ncn[nH]1)NCc1ccccc1Cl,14.9
22,CCS(=O)(=O)N1CCC(C(=O)O)CC1,33.7

# — publication PMC4336329 (PLoS ONE, 2015)
